The list shows a part of the results.

In this assay the target is T1, MBP-FoxP1dN (Mus musculus, UniProt P58462 326-579).
T1 sequence: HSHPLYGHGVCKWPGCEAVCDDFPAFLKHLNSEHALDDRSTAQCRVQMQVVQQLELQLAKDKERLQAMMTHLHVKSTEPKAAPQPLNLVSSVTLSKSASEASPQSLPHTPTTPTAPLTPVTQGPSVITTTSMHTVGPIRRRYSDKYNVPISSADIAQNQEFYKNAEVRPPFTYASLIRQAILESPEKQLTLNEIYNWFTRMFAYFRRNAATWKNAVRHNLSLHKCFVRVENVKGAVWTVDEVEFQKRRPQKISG
Briefly: PD-seq (MBP pull-down with sequencing); 20 mM Tris-HCl pH 7.5, 100 mM NaCl, 1.5 mM MgCl2, 0.4 uM protein, 0.1 uM dsDNA library, 30 min, room temperature, amylose pull-down; high values mean tight binding. Particulars: protein: recombinant; tags: His6-MBP; chain copies: 2; dsDNA, one strand shown. The method in brief: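 Amylose resin was used to capture complexes formed during 30 min at room temperature in Tris pH 7.5 buffer with NaCl and MgCl2 between 0.4 µM His6-MBP-tagged mouse FoxP3 or FoxP1 fragment lacking the N-terminus, expressed in E. coli, and 0.1 µM Klenow-filled double-stranded degenerate DNA library. After three washes, the DNA was released with proteinase K, barcoded by PCR and sequenced on Illumina. Binding is pooled-replicate reads-per-million enrichment, pull-down over input.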
On to “GATGATTGTTCTCCCAGCTGATGAATTAGAGCCGTCGAGTAAACAAATTTTCCTAATCTTTCTGTTCAAGCGCCATCTAC”, for which the binding signal was 0.838 RPM ratio (pull-down/input). Turning to “GATGATTGTTCTCCCAGCTGATGAATTCCTCATTTCGAGTAAACAAATTTTCCTAATCTTTCTGTTCAAGCGCCATCTAC”, the binding signal was 0.978 RPM ratio (pull-down/input). Turning to “GATGATTGTTCTCCCAGCTGATGAATTACCGACATCGAGTAAACAAATTTTCCTAATCTTTCTGTTCAAGCGCCATCTAC”, the binding signal was 1.07 RPM ratio (pull-down/input). Next, “GATGATTGTTCTCCCAGCTGATGAATTGAAGCAATCGAGTAAACAAATTTTCCTAATCTTTCTGTTCAAGCGCCATCTAC”: 1.07 RPM ratio (pull-down/input). Take “GATGATTGTTCTCCCAGCTGATGAATTAAAAAAATCGAGTAAACAAATTTTCCTAATCTTTCTGTTCAAGCGCCATCTAC”: the binding signal was 1.04 RPM ratio (pull-down/input).

On to “GATGATTGTTCTCCCAGCTGATGAATTCGCCATATCGAGTAAACAAATTTTCCTAATCTTTCTGTTCAAGCGCCATCTAC”, for which the binding signal is 0.887 RPM ratio (pull-down/input). Regarding “GATGATTGTTCTCCCAGCTGATGAATTTTAGAGTTCGAGTAAACAAATTTTCCTAATCTTTCTGTTCAAGCGCCATCTAC”, the binding signal was 0.848 RPM ratio (pull-down/input).

Consider “GATGATTGTTCTCCCAGCTGATGAATTGTTCTTGTCGAGTAAACAAATTTTCCTAATCTTTCTGTTCAAGCGCCATCTAC”, for which the binding signal is 1.19 RPM ratio (pull-down/input). Next, “GATGATTGTTCTCCCAGCTGATGAATTGGGTAGATCGAGTAAACAAATTTTCCTAATCTTTCTGTTCAAGCGCCATCTAC”: 0.868 RPM ratio (pull-down/input). Take “GATGATTGTTCTCCCAGCTGATGAATTCACTTTGTCGAGTAAACAAATTTTCCTAATCTTTCTGTTCAAGCGCCATCTAC”: the binding signal was 0.859 RPM ratio (pull-down/input). The same measure for “GATGATTGTTCTCCCAGCTGATGAATTTTTACACTCGAGTAAACAAATTTTCCTAATCTTTCTGTTCAAGCGCCATCTAC”: 0.965 RPM ratio (pull-down/input); for “GATGATTGTTCTCCCAGCTGATGAATTCCTCAATTCGAGTAAACAAATTTTCCTAATCTTTCTGTTCAAGCGCCATCTAC”: 0.959 RPM ratio (pull-down/input); for “GATGATTGTTCTCCCAGCTGATGAATTACTTGAATCGAGTAAACAAATTTTCCTAATCTTTCTGTTCAAGCGCCATCTAC”: 1.12 RPM ratio (pull-down/input). For the sequence “GATGATTGTTCTCCCAGCTGATGAATTCTTATAATCGAGTAAACAAATTTTCCTAATCTTTCTGTTCAAGCGCCATCTAC”, the binding signal was 1.2 RPM ratio (pull-down/input). Next, “GATGATTGTTCTCCCAGCTGATGAATTGAAATGCTCGAGTAAACAAATTTTCCTAATCTTTCTGTTCAAGCGCCATCTAC”: 1.07 RPM ratio (pull-down/input). The same measure for “GATGATTGTTCTCCCAGCTGATGAATTGCGCTGATCGAGTAAACAAATTTTCCTAATCTTTCTGTTCAAGCGCCATCTAC”: 1.12 RPM ratio (pull-down/input); for “GATGATTGTTCTCCCAGCTGATGAATTGTATCTCTCGAGTAAACAAATTTTCCTAATCTTTCTGTTCAAGCGCCATCTAC”: 1.2 RPM ratio (pull-down/input). On to “GATGATTGTTCTCCCAGCTGATGAATTCCACTGGTCGAGTAAACAAATTTTCCTAATCTTTCTGTTCAAGCGCCATCTAC”, for which the binding signal was 0.752 RPM ratio (pull-down/input). With “GATGATTGTTCTCCCAGCTGATGAATTCCTTGGCTCGAGTAAACAAATTTTCCTAATCTTTCTGTTCAAGCGCCATCTAC”, the binding signal is 0.766 RPM ratio (pull-down/input).

With “GATGATTGTTCTCCCAGCTGATGAATTCCAGCTATCGAGTAAACAAATTTTCCTAATCTTTCTGTTCAAGCGCCATCTAC”, the binding signal is 0.883 RPM ratio (pull-down/input). Turning to “GATGATTGTTCTCCCAGCTGATGAATTCTCTTTTTCGAGTAAACAAATTTTCCTAATCTTTCTGTTCAAGCGCCATCTAC”, the binding signal is 0.96 RPM ratio (pull-down/input). The same measure for “GATGATTGTTCTCCCAGCTGATGAATTATCTCAGTCGAGTAAACAAATTTTCCTAATCTTTCTGTTCAAGCGCCATCTAC”: 0.957 RPM ratio (pull-down/input); for “GATGATTGTTCTCCCAGCTGATGAATTATAAAGATCGAGTAAACAAATTTTCCTAATCTTTCTGTTCAAGCGCCATCTAC”: 1.08 RPM ratio (pull-down/input); for “GATGATTGTTCTCCCAGCTGATGAATTTTCCACCTCGAGTAAACAAATTTTCCTAATCTTTCTGTTCAAGCGCCATCTAC”: 0.878 RPM ratio (pull-down/input). The same measure for “GATGATTGTTCTCCCAGCTGATGAATTCCATCTCTCGAGTAAACAAATTTTCCTAATCTTTCTGTTCAAGCGCCATCTAC”: 0.851 RPM ratio (pull-down/input).

Regarding “GATGATTGTTCTCCCAGCTGATGAATTCCATATGTCGAGTAAACAAATTTTCCTAATCTTTCTGTTCAAGCGCCATCTAC”, the binding signal was 0.896 RPM ratio (pull-down/input). On to “GATGATTGTTCTCCCAGCTGATGAATTCTCAAGATCGAGTAAACAAATTTTCCTAATCTTTCTGTTCAAGCGCCATCTAC”, for which the binding signal was 0.801 RPM ratio (pull-down/input).

As for “GATGATTGTTCTCCCAGCTGATGAATTGCCAGACTCGAGTAAACAAATTTTCCTAATCTTTCTGTTCAAGCGCCATCTAC”, the binding signal was 0.901 RPM ratio (pull-down/input). Next, “GATGATTGTTCTCCCAGCTGATGAATTCAGCCCTTCGAGTAAACAAATTTTCCTAATCTTTCTGTTCAAGCGCCATCTAC”: 0.851 RPM ratio (pull-down/input). As for “GATGATTGTTCTCCCAGCTGATGAATTGCATGGATCGAGTAAACAAATTTTCCTAATCTTTCTGTTCAAGCGCCATCTAC”, the binding signal is 1.03 RPM ratio (pull-down/input). For the sequence “GATGATTGTTCTCCCAGCTGATGAATTGTATTGCTCGAGTAAACAAATTTTCCTAATCTTTCTGTTCAAGCGCCATCTAC”, the binding signal is 1.3 RPM ratio (pull-down/input).

For the origin of these results see PMC12820563, “FoxP3 forms a head-to-head dimer in vivo and stabilizes its multimerization on adjacent microsatellites”.
